Data taken from paper PMC11345399 (The Journal of Biological Chemistry, 2024).

How the values were obtained:
Type in all cases: biochemical
EV-71 RdRp = tested on: EV-71 RdRp
SARS-CoV-2 RdRp = SARS-CoV-2 RdRp (Severe acute respiratory syndrome coronavirus 2, UniProt P0DTD1)
HRV-16 RdRp = HRV-16 RdRp (Human rhinovirus 16, UniProt Q82122)

SMILES	Inhibition (fold) of subsequent nucleotide incorporation, ratio of Vmax/Km vs AMP-terminated primer (EV-71 RdRp)	Inhibition (fold) of subsequent nucleotide incorporation, ratio of Vmax/Km vs AMP-terminated primer (SARS-CoV-2 RdRp) [fold]	Inhibition (fold) of subsequent nucleotide incorporation, ratio of Vmax/Km vs AMP-terminated primer (HRV-16 RdRp) [fold]
N#C[C@@]1(c2ccc3c(N)ncnn23)O[C@H](COP(=O)(O)OP(=O)(O)OP(=O)(O)O)[C@@H](O)[C@H]1O [GS-443902]	4.50 fold	0.88	2.81
N#C[C@]1(COP(=O)(O)OP(=O)(O)OP(=O)(O)O)O[C@@H](c2ccc3c(N)ncnn23)[C@H](O)[C@@H]1O [GS-646939]	4,642 fold	2542	751
